The other results are listed elsewhere or left out. No stated cut-off is given here; in the data, active = 3.2 or more and inactive = the rest. Only a few entries rise above the background.
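Further: displayed peptides selected on beads carrying the immobilized SH2 domain, with library peptides lacking any tyrosine serving as negative controls.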

In the first assay the target is SHP2 C-SH2 domain E139D. In words: enrichment score (SH2-bound / input frequency) (ratio); bacterial display of known human phosphotyrosine sites (pTyr-Var adds point mutants) read by sequencing; higher = stronger binding; tyrosines were phosphorylated by kinases first. To be noted: peptide library: pTyr-Var.
Take LEYNEYFRDLN [HPRT1_Y198_D194E]: the enrichment score is inactive: 1.03.
The same measure, in the same setting: under SSWPGYVRPLP [HSPB1_Y54] stands inactive: 1.01; under LIGRRYDDPEV [HSPA9_Y128], inactive: 0.232.
With KNAEKYAEEDW [HSPA9_Y568_R573W], the enrichment score is inactive: 0.662.
On the same count and under the same terms, next, SLMGCYNLTFM [HS6ST3_Y323_V320M]: inactive: 1.1.
On the same count and under the same terms, next, GFEVVYVTEPI [HSP90AB1_Y512_M513V]: inactive: 0.746; LLREWYMIFSR [HUWE1_Y4066_I4069F]: inactive: 3.18; QDEHGYISRCF [HSPB1_Y133]: inactive: 0.654.
Still for that read-out and setting: next, KVQVSYKGDTK [HSPA1A_Y107_E110D]: inactive: 0.856; LEFNEYFRDLN [HPRT1_Y198_D194E_YF]: inactive: 0.981.
Regarding GAALAYGLDKS [HSPA9_Y230_A225G], the enrichment score was inactive: 0.85.
On to RDEHGYISRCF [HSPB1_Y133_Q128R], for which the enrichment score was inactive: 0.741.
On to SLVGCYNLTFM [HS6ST3_Y323], for which the enrichment score was inactive: 0.899.
As for LMLVLYGRIFL [HTR1A_Y215_R220L], the enrichment score is inactive: 1.34.
Same read-out and setting: next, CFTRKYTLPPG [HSPB1_Y142]: inactive: 0.676; ETAENYLGFTA [HSPA9_Y181_H184Y_YF]: inactive: 0.685.
Still for that read-out and setting: under KNAEKYAEEDR [HSPA9_Y568] stands inactive: 0.565; under AGQEKYSAMRD [HRAS_Y64_E63K], inactive: 0.519.
LDFNEYVRDLN [HPRT1_Y198_F199V_YF]: the enrichment score is inactive: 0.833.

In a further assay the target is SHP2 C-SH2 domain wild-type. The description is as above. The note with it: peptide library: pTyr-Var.
For the molecule LEYNEYFRDLN [HPRT1_Y198_D194E], the enrichment score was inactive: 0.897.
For the molecule SSWPGYVRPLP [HSPB1_Y54], the enrichment score is inactive: 0.761.
Turning to LIGRRYDDPEV [HSPA9_Y128], the enrichment score is inactive: 0.361.
For the molecule KNAEKYAEEDW [HSPA9_Y568_R573W], the enrichment score was inactive: 0.782.
In the case of SLMGCYNLTFM [HS6ST3_Y323_V320M], the enrichment score was inactive: 1.34.
On the same count and under the same terms, next, GFEVVYVTEPI [HSP90AB1_Y512_M513V]: inactive: 0.659; LLREWYMIFSR [HUWE1_Y4066_I4069F]: active: 3.34; QDEHGYISRCF [HSPB1_Y133]: inactive: 0.738.
For KVQVSYKGDTK [HSPA1A_Y107_E110D], the enrichment score is inactive: 0.65.
With LEFNEYFRDLN [HPRT1_Y198_D194E_YF], the enrichment score was inactive: 0.853.
Still for that read-out and setting: under GAALAYGLDKS [HSPA9_Y230_A225G] stands inactive: 0.63; under RDEHGYISRCF [HSPB1_Y133_Q128R], inactive: 0.744; under SLVGCYNLTFM [HS6ST3_Y323], inactive: 1.25.
Same read-out and setting: under LMLVLYGRIFL [HTR1A_Y215_R220L] stands inactive: 1.4; under CFTRKYTLPPG [HSPB1_Y142], inactive: 0.567.
Turning to ETAENYLGFTA [HSPA9_Y181_H184Y_YF], the enrichment score is inactive: 0.731.
The same measure, in the same setting: next, KNAEKYAEEDR [HSPA9_Y568]: inactive: 0.645; AGQEKYSAMRD [HRAS_Y64_E63K]: inactive: 0.631.
Consider LDFNEYVRDLN [HPRT1_Y198_F199V_YF], for which the enrichment score is inactive: 0.862.

The next assay has as its target SHP2 N-SH2 domain L43F. The assay is described as above. The note with it: peptide library: pTyr-Var.
LEYNEYFRDLN [HPRT1_Y198_D194E]: the enrichment score is inactive: 1.19.
In the case of SSWPGYVRPLP [HSPB1_Y54], the enrichment score is inactive: 0.874.
On to LIGRRYDDPEV [HSPA9_Y128], for which the enrichment score was inactive: 0.186.
The same measure, in the same setting: under KNAEKYAEEDW [HSPA9_Y568_R573W] stands inactive: 0.663.
The same measure, in the same setting: under SLMGCYNLTFM [HS6ST3_Y323_V320M] stands inactive: 0.909; under GFEVVYVTEPI [HSP90AB1_Y512_M513V], inactive: 0.722.
As for LLREWYMIFSR [HUWE1_Y4066_I4069F], the enrichment score is inactive: 2.98.
On to QDEHGYISRCF [HSPB1_Y133], for which the enrichment score is inactive: 0.53.
As to KVQVSYKGDTK [HSPA1A_Y107_E110D], the enrichment score was inactive: 0.948.
Take LEFNEYFRDLN [HPRT1_Y198_D194E_YF]: the enrichment score is inactive: 1.22.
Consider GAALAYGLDKS [HSPA9_Y230_A225G], for which the enrichment score was inactive: 0.695.
The same measure, in the same setting: under RDEHGYISRCF [HSPB1_Y133_Q128R] stands inactive: 0.82.
The same measure, in the same setting: next, SLVGCYNLTFM [HS6ST3_Y323]: inactive: 1.07; LMLVLYGRIFL [HTR1A_Y215_R220L]: inactive: 1.41.
On the same count and under the same terms, under CFTRKYTLPPG [HSPB1_Y142] stands inactive: 0.625; under ETAENYLGFTA [HSPA9_Y181_H184Y_YF], inactive: 0.746.
With KNAEKYAEEDR [HSPA9_Y568], the enrichment score was inactive: 0.436.
Take AGQEKYSAMRD [HRAS_Y64_E63K]: the enrichment score is inactive: 0.571.
Same read-out and setting: next, LDFNEYVRDLN [HPRT1_Y198_F199V_YF]: inactive: 0.858.

The target in the next assay is SHP2 N-SH2 domain T42A. The description is as above. To be noted: peptide library: pTyr-Var.
Turning to LEYNEYFRDLN [HPRT1_Y198_D194E], the enrichment score was inactive: 1.38.
Still for that read-out and setting: under SSWPGYVRPLP [HSPB1_Y54] stands inactive: 0.918; under LIGRRYDDPEV [HSPA9_Y128], inactive: 0.366; under KNAEKYAEEDW [HSPA9_Y568_R573W], inactive: 0.453.
Same read-out and setting: under SLMGCYNLTFM [HS6ST3_Y323_V320M] stands inactive: 0.852; under GFEVVYVTEPI [HSP90AB1_Y512_M513V], inactive: 0.698.
Turning to LLREWYMIFSR [HUWE1_Y4066_I4069F], the enrichment score was inactive: 2.73.
Same read-out and setting: next, QDEHGYISRCF [HSPB1_Y133]: inactive: 0.932; KVQVSYKGDTK [HSPA1A_Y107_E110D]: inactive: 0.493; LEFNEYFRDLN [HPRT1_Y198_D194E_YF]: inactive: 0.837.
Same read-out and setting: under GAALAYGLDKS [HSPA9_Y230_A225G] stands inactive: 0.669; under RDEHGYISRCF [HSPB1_Y133_Q128R], inactive: 0.696; under SLVGCYNLTFM [HS6ST3_Y323], inactive: 0.944.
Regarding LMLVLYGRIFL [HTR1A_Y215_R220L], the enrichment score is inactive: 0.917.
On to CFTRKYTLPPG [HSPB1_Y142], for which the enrichment score is inactive: 0.598.
Regarding ETAENYLGFTA [HSPA9_Y181_H184Y_YF], the enrichment score was inactive: 0.597.
On to KNAEKYAEEDR [HSPA9_Y568], for which the enrichment score was inactive: 0.471.
Turning to AGQEKYSAMRD [HRAS_Y64_E63K], the enrichment score is inactive: 0.467.
The same measure, in the same setting: next, LDFNEYVRDLN [HPRT1_Y198_F199V_YF]: inactive: 0.692.

In another assay the target is SHP2 N-SH2 domain T52S. The description is as above. To be noted: peptide library: pTyr-Var.
For the molecule LEYNEYFRDLN [HPRT1_Y198_D194E], the enrichment score was inactive: 1.17.
Take SSWPGYVRPLP [HSPB1_Y54]: the enrichment score was inactive: 0.829.
Regarding LIGRRYDDPEV [HSPA9_Y128], the enrichment score is inactive: 0.337.
On the same count and under the same terms, next, KNAEKYAEEDW [HSPA9_Y568_R573W]: inactive: 0.621.
The same measure, in the same setting: under SLMGCYNLTFM [HS6ST3_Y323_V320M] stands inactive: 1.08; under GFEVVYVTEPI [HSP90AB1_Y512_M513V], inactive: 0.785.
Regarding LLREWYMIFSR [HUWE1_Y4066_I4069F], the enrichment score was inactive: 3.02.
The same measure, in the same setting: under QDEHGYISRCF [HSPB1_Y133] stands inactive: 0.663.
The same measure, in the same setting: under KVQVSYKGDTK [HSPA1A_Y107_E110D] stands inactive: 0.73; under LEFNEYFRDLN [HPRT1_Y198_D194E_YF], inactive: 0.886; under GAALAYGLDKS [HSPA9_Y230_A225G], inactive: 0.838.
On the same count and under the same terms, next, RDEHGYISRCF [HSPB1_Y133_Q128R]: inactive: 0.51; SLVGCYNLTFM [HS6ST3_Y323]: inactive: 1.01.
As for LMLVLYGRIFL [HTR1A_Y215_R220L], the enrichment score is inactive: 1.08.
Still for that read-out and setting: under CFTRKYTLPPG [HSPB1_Y142] stands inactive: 0.491; under ETAENYLGFTA [HSPA9_Y181_H184Y_YF], inactive: 0.584.
The same measure, in the same setting: next, KNAEKYAEEDR [HSPA9_Y568]: inactive: 0.491; AGQEKYSAMRD [HRAS_Y64_E63K]: inactive: 0.653.
Still for that read-out and setting: under LDFNEYVRDLN [HPRT1_Y198_F199V_YF] stands inactive: 0.731.

A further assay concerns the target SHP2 N-SH2 domain wild-type. The description is as above. The note with it: peptide library: pTyr-Var.
Take LEYNEYFRDLN [HPRT1_Y198_D194E]: the enrichment score was inactive: 1.52.
On the same count and under the same terms, next, SSWPGYVRPLP [HSPB1_Y54]: inactive: 0.754; LIGRRYDDPEV [HSPA9_Y128]: inactive: 0.316; KNAEKYAEEDW [HSPA9_Y568_R573W]: inactive: 0.798.
Still for that read-out and setting: next, SLMGCYNLTFM [HS6ST3_Y323_V320M]: inactive: 1.31; GFEVVYVTEPI [HSP90AB1_Y512_M513V]: inactive: 1.08; LLREWYMIFSR [HUWE1_Y4066_I4069F]: inactive: 3.08.
Same read-out and setting: next, QDEHGYISRCF [HSPB1_Y133]: inactive: 0.987.
Regarding KVQVSYKGDTK [HSPA1A_Y107_E110D], the enrichment score is inactive: 0.734.
Still for that read-out and setting: next, LEFNEYFRDLN [HPRT1_Y198_D194E_YF]: inactive: 0.789; GAALAYGLDKS [HSPA9_Y230_A225G]: inactive: 0.751; RDEHGYISRCF [HSPB1_Y133_Q128R]: inactive: 0.887.
For the molecule SLVGCYNLTFM [HS6ST3_Y323], the enrichment score is inactive: 1.51.
The same measure, in the same setting: next, LMLVLYGRIFL [HTR1A_Y215_R220L]: inactive: 1.76.
On the same count and under the same terms, under CFTRKYTLPPG [HSPB1_Y142] stands inactive: 0.75.
The same measure, in the same setting: under ETAENYLGFTA [HSPA9_Y181_H184Y_YF] stands inactive: 0.932; under KNAEKYAEEDR [HSPA9_Y568], inactive: 0.745.
As to AGQEKYSAMRD [HRAS_Y64_E63K], the enrichment score is inactive: 0.664.
Take LDFNEYVRDLN [HPRT1_Y198_F199V_YF]: the enrichment score was inactive: 0.836.

Source of the values: the supplement of paper PMC10369915.
